According to the supplement of paper PMC10037445:
Values joined by “and” are separate entries in the source; they are usually repeats but may differ in a detail not shown here. Equal entries are not always repeated. ± gives the standard deviation of the averaged measurements. Over roughly 2,900 compounds, “IRF Lucia reporter activity, fold change vs agonist alone” has its median near 0.9; the highest 2% begin near 2.8. This is one part of the list.

Assays:
RAW-Dual [1] = assay: IRF Lucia reporter activity, fold change vs agonist alone; cytotoxicity flag (confluency mask): not cytotoxic; higher = enhanced IRF activity
Outline: (§1)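 Library stock was pin-tooled at 50 nL into 384-well plates of RAW-Dual macrophages (50,000 cells/well, DMEM), followed 1 h later by a PRR agonist, and the cells were kept at 37 °C, 5% CO2. Supernatant collected after 20 hours was read for IRF by QuantiLuc luminescence and for NF-κB by QuantiBlue absorbance at 620 nm. Reporter activity is fold change over agonist-alone wells, and a well counted as cytotoxic when its IncuCyte confluency was below 70% of agonist controls in both mask sets.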

RAW-Dual [2] = assay: IRF Lucia reporter activity, fold change vs agonist alone; higher = enhanced IRF activity; conditions: library stock concentration (final ~1000-fold dilution): 10 mM; cytotoxicity flag (confluency mask): not cytotoxic; agonist: MPLA (TLR4) […]
Outline: as §1

RAW-Dual [3] = assay: IRF Lucia reporter activity, fold change vs agonist alone; cytotoxicity flag (confluency mask): cytotoxic (confluency <70% of control); higher = enhanced IRF activity
Outline: as §1

[4] = agonist: 3'3'-cGAMP (STING) 10 ug/mL

## O=C(O)c1ccc(/C=C2/SC(=S)N(c3cccc(C(F)(F)F)c3)C2=O)cc1 (library stock concentration (final ~1000-fold dilution): 10 mM)
RAW-Dual [1]; [4]
  IRF Lucia reporter activity: 0.868
RAW-Dual [1]; agonist: LPS (TLR4) 0.1 ug/mL
  IRF Lucia reporter activity: 1.26

## O=C(O)c1ccc(/C=C2/SC(=S)N(c3cccc(C(F)(F)F)c3)C2=O)cc1
RAW-Dual [2]
  IRF Lucia reporter activity: 1.18

## CCc1cccc2c3c([nH]c12)C(CC)(CC(=O)O)OCC3 (configuration not stated)
RAW-Dual [2]
  IRF Lucia reporter activity: 1.12

## CCc1cccc2c3c([nH]c12)C(CC)(CC(=O)O)OCC3 (configuration not stated) (library stock concentration (final ~1000-fold dilution): 10 mM)
RAW-Dual [1]; [4]
  IRF Lucia reporter activity: 1.05
RAW-Dual [1]; agonist: LPS (TLR4) 0.1 ug/mL
  IRF Lucia reporter activity: 0.946

## O=C1CC(c2c[nH]c3ccc(F)cc23)C(=O)N1 (configuration not stated) (library stock concentration (final ~1000-fold dilution): 10 mM)
RAW-Dual [1]; [4]
  IRF Lucia reporter activity: 0.989
RAW-Dual [1]; agonist: LPS (TLR4) 0.1 ug/mL
  IRF Lucia reporter activity: 0.839

## CC(C)=CC(C)C[C@](C)(O[C@@H]1O[C@H](CO)[C@@H](O)[C@H](O)[C@H]1O)[C@H]1CC[C@]2(C)C3CCC4C(C)(C)C(O[C@@H]5O[C@H](CO)[C@@H](O)[C@H](O)[C@H]5O[C@@H]5O[C@H](CO)[C@@H](O)[C@H](O)[C@H]5O)CC[C@]4(C)C3C[C@H](O)[C@@H]12 (some centres not stated) (library stock concentration (final ~1000-fold dilution): 10 mM)
RAW-Dual [1]; [4]
  IRF Lucia reporter activity: 0.991
RAW-Dual [1]; agonist: LPS (TLR4) 0.1 ug/mL
  IRF Lucia reporter activity: 1.47

## Cc1nc(N)sc1-c1ccnc(Nc2ccc(N3CCOCC3)cc2)n1
RAW-Dual [2]
  IRF Lucia reporter activity: 0.0284

## Cc1nc(N)sc1-c1ccnc(Nc2ccc(N3CCOCC3)cc2)n1 (library stock concentration (final ~1000-fold dilution): 10 mM)
RAW-Dual [1]; [4]
  IRF Lucia reporter activity: 0.0149
RAW-Dual [1]; agonist: LPS (TLR4) 0.1 ug/mL
  IRF Lucia reporter activity: 0.023

## CC(=O)OC1CC/C(C)=C/CC/C(C)=C/CC2(C(C)C)CCC1(C)O2 (configuration not stated) (library stock concentration (final ~1000-fold dilution): 10 mM)
RAW-Dual [1]; [4]
  IRF Lucia reporter activity: 0.818 ± 0.25
RAW-Dual [1]; agonist: LPS (TLR4) 0.1 ug/mL
  IRF Lucia reporter activity: 0.744 ± 0.15

## COc1cc2ncnc(Nc3ccc(Oc4ccccc4)cc3C)c2cc1OC.Cl (library stock concentration (final ~1000-fold dilution): 10 mM)
RAW-Dual [1]; [4]
  IRF Lucia reporter activity: 0.418
RAW-Dual [1]; agonist: LPS (TLR4) 0.1 ug/mL
  IRF Lucia reporter activity: 1.49

## Cc1cccc(-c2n[nH]cc2-c2ccc3ncccc3n2)n1
RAW-Dual [2]
  IRF Lucia reporter activity: 0.367

## Cc1cccc(-c2n[nH]cc2-c2ccc3ncccc3n2)n1 (library stock concentration (final ~1000-fold dilution): 10 mM)
RAW-Dual [1]; [4]
  IRF Lucia reporter activity: 0.154
RAW-Dual [1]; agonist: LPS (TLR4) 0.1 ug/mL
  IRF Lucia reporter activity: 0.327

## Cc1cc(-c2ccnc3cc(O)ccc23)ccc1O (library stock concentration (final ~1000-fold dilution): .1 mM)
RAW-Dual [1]; [4]
  IRF Lucia reporter activity: 1.02
RAW-Dual [1]; agonist: LPS (TLR4) 0.1 ug/mL
  IRF Lucia reporter activity: 1.02

## CN1CCC(c2c(O)cc(O)c3c(=O)cc(-c4ccccc4Cl)oc23)C1CO.Cl (configuration not stated) (library stock concentration (final ~1000-fold dilution): 10 mM)
RAW-Dual [3]; [4]
  IRF Lucia reporter activity: 0.00862
RAW-Dual [3]; agonist: LPS (TLR4) 0.1 ug/mL
  IRF Lucia reporter activity: 0.0242

## Cc1ccc(-c2c(-c3nn(C)c4ncnc(N5CCC(N6CCCCC6)C5)c34)cnn2C)cc1 (configuration not stated)
RAW-Dual [2]
  IRF Lucia reporter activity: 1.1

## Cc1ccc(-c2c(-c3nn(C)c4ncnc(N5CCC(N6CCCCC6)C5)c34)cnn2C)cc1 (configuration not stated) (library stock concentration (final ~1000-fold dilution): 10 mM)
RAW-Dual [1]; [4]
  IRF Lucia reporter activity: 1.09
RAW-Dual [1]; agonist: LPS (TLR4) 0.1 ug/mL
  IRF Lucia reporter activity: 0.958

## COc1cc2c(cc1OC)-c1cc3ccc4c(c3c[n+]1CC2)OCO4 (library stock concentration (final ~1000-fold dilution): 10 mM)
RAW-Dual [1]; [4]
  IRF Lucia reporter activity: 1.01 and 0.78
RAW-Dual [1]; agonist: LPS (TLR4) 0.1 ug/mL
  IRF Lucia reporter activity: 1.19 and 1.06

## Cc1cn(C2CC(O)C(CO)O2)c(=O)[nH]c1=O (configuration not stated) (library stock concentration (final ~1000-fold dilution): 10 mM)
RAW-Dual [1]; [4]
  IRF Lucia reporter activity: 1.07
RAW-Dual [1]; agonist: LPS (TLR4) 0.1 ug/mL
  IRF Lucia reporter activity: 0.877

## Cc1cn(C2CC(O)C(CO)O2)c(=O)[nH]c1=O (configuration not stated)
RAW-Dual [2]
  IRF Lucia reporter activity: 0.937

## NOCC(=O)O
RAW-Dual [2]
  IRF Lucia reporter activity: 1.07

## NOCC(=O)O (library stock concentration (final ~1000-fold dilution): 10 mM)
RAW-Dual [1]; [4]
  IRF Lucia reporter activity: 1.05
RAW-Dual [1]; agonist: LPS (TLR4) 0.1 ug/mL
  IRF Lucia reporter activity: 1.4

## COc1cc2ncnc(Nc3ccc(O)cc3)c2cc1OC
RAW-Dual [2]
  IRF Lucia reporter activity: 0.582

## COc1cc2ncnc(Nc3ccc(O)cc3)c2cc1OC (library stock concentration (final ~1000-fold dilution): 10 mM)
RAW-Dual [1]; [4]
  IRF Lucia reporter activity: 0.475
RAW-Dual [1]; agonist: LPS (TLR4) 0.1 ug/mL
  IRF Lucia reporter activity: 0.177

## CS(=O)(=O)O.N#CC1(c2ccc(NC(=O)c3cccnc3NCc3ccncc3)cc2)CCCC1 (library stock concentration (final ~1000-fold dilution): 10 mM)
RAW-Dual [1]; [4]
  IRF Lucia reporter activity: 0.204
RAW-Dual [1]; agonist: LPS (TLR4) 0.1 ug/mL
  IRF Lucia reporter activity: 0.822

## CS(=O)(=O)O.N#CC1(c2ccc(NC(=O)c3cccnc3NCc3ccncc3)cc2)CCCC1
RAW-Dual [2]
  IRF Lucia reporter activity: 0.927

## CCC(C)C(=O)OC1CCC=C2C=CC(C)C(CCC3CC(O)CC(=O)O3)C21 (configuration not stated)
RAW-Dual [2]
  IRF Lucia reporter activity: 0.761

## CCC(C)C(=O)OC1CCC=C2C=CC(C)C(CCC3CC(O)CC(=O)O3)C21 (configuration not stated) (library stock concentration (final ~1000-fold dilution): 10 mM)
RAW-Dual [1]; [4]
  IRF Lucia reporter activity: 0.46
RAW-Dual [1]; agonist: LPS (TLR4) 0.1 ug/mL
  IRF Lucia reporter activity: 0.787

## CCN(CC)C(=O)Nc1ccc(OCC(O)CNC(C)(C)C)c(C(C)=O)c1.Cl (configuration not stated) (library stock concentration (final ~1000-fold dilution): 10 mM)
RAW-Dual [1]; [4]
  IRF Lucia reporter activity: 0.652
RAW-Dual [1]; agonist: LPS (TLR4) 0.1 ug/mL
  IRF Lucia reporter activity: 0.217

## CCN(CC)C(=O)Nc1ccc(OCC(O)CNC(C)(C)C)c(C(C)=O)c1.Cl (configuration not stated)
RAW-Dual [2]
  IRF Lucia reporter activity: 0.256
